# Source: the supplement of paper PMC8728848
# This is one part of the list.
# What was measured:
# Test in all cases: glycan array binding signal (z-score within array); higher = stronger binding
# Conditions in all cases: glycan notation: IUPAC condensed, linker removed
# [1] = biological target: Neu5Ac(a2-3)Gal(b1-3)[Neu5Ac(a2-6)]GalNAc
# Summary of the method: (§1)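 Glycan array data came from 3228 arrays in the Consortium for Functional Glycomics database, and only arrays with an available protein sequence were kept. Glycan names were put into IUPAC-condensed notation, and columns mapping to the same glycan were averaged. The binding signal is a within-array Z-score, averaged across arrays of one protein sequence run at different concentrations or buffers and across linkers. A negative Z-score can be read as non-binding.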
# Neu5Ac(a2-3)Gal(b1-4)Glc = biological target: Neu5Ac(a2-3)Gal(b1-4)Glc
# Summary of the method: as §1
# [2] = biological target: Neu5Ac(a2-3)Gal(b1-4)GlcNAc
# Summary of the method: as §1
# [3] = biological target: Neu5Ac(a2-3)Gal(b1-4)GlcNAc(b1-3)Gal(b1-3)GlcNAc
# Summary of the method: as §1
# [4] = biological target: Neu5Ac(a2-3)Gal(b1-4)GlcNAc(b1-3)Gal(b1-4)GlcNAc
# Summary of the method: as §1
# [5] = biological target: Neu5Ac(a2-3)Gal(b1-4)GlcNAc(b1-3)Gal(b1-4)GlcNAc(b1-3)Gal(b1-4)GlcNAc
# Summary of the method: as §1
# [6] = biological target: Neu5Ac(a2-3)Gal(b1-4)GlcNAc(b1-3)Gal(b1-4)[Fuc(a1-3)]GlcNAc
# Summary of the method: as §1
# [7] = biological target: Neu5Ac(a2-3)Gal(b1-4)GlcNAc(b1-6)[Gal(b1-3)]GalNAc
# Summary of the method: as §1
# [8] = biological target: Neu5Ac(a2-3)Gal(b1-4)GlcNAc6S
# Summary of the method: as §1
# [9] = biological target: Neu5Ac(a2-3)Gal(b1-4)[Fuc(a1-3)]GlcNAc
# Summary of the method: as §1
# [10] = biological target: Neu5Ac(a2-3)Gal(b1-4)[Fuc(a1-3)]GlcNAc(b1-3)Gal
# Summary of the method: as §1
# [11] = biological target: Neu5Ac(a2-3)Gal(b1-4)[Fuc(a1-3)]GlcNAc(b1-3)Gal(b1-4)GlcNAc
# Summary of the method: as §1
# [12] = biological target: Neu5Ac(a2-3)Gal(b1-4)[Fuc(a1-3)]GlcNAc(b1-3)Gal(b1-4)[Fuc(a1-3)]GlcNAc(b1-3)Gal(b1-4)[Fuc(a1-3)]GlcNAc
# Summary of the method: as §1
# [13] = biological target: Neu5Ac(a2-3)Gal(b1-4)[Fuc(a1-3)]GlcNAc6S
# Summary of the method: as §1
# [14] = biological target: Neu5Ac(a2-3)Gal6S(b1-4)GlcNAc
# Summary of the method: as §1
# [15] = biological target: Neu5Ac(a2-3)Gal6S(b1-4)[Fuc(a1-3)]GlcNAc
# Summary of the method: as §1
# Neu5Ac(a2-3)GalNAc = biological target: Neu5Ac(a2-3)GalNAc
# Summary of the method: as §1
# [16] = biological target: Neu5Ac(a2-3)GalNAc(b1-4)GlcNAc
# Summary of the method: as §1
# [17] = biological target: Neu5Ac(a2-3)[GalNAc(b1-4)]Gal(b1-4)Glc
# Summary of the method: as §1
# [18] = biological target: Neu5Ac(a2-3)[GalNAc(b1-4)]Gal(b1-4)GlcNAc
# Summary of the method: as §1
# [19] = biological target: Neu5Ac(a2-3)[Neu5Ac(a2-6)]GalNAc
# Summary of the method: as §1
# [20] = biological target: Neu5Ac(a2-6)Gal(b1-4)GlcNAc
# Summary of the method: as §1
# [21] = biological target: Neu5Ac(a2-6)Gal(b1-4)GlcNAc(b1-2)Man(a1-3)[Neu5Ac(a2-6)Gal(b1-4)GlcNAc(b1-2)Man(a1-6)]Man(b1-4)GlcNAc(b1-4)GlcNAc
# Summary of the method: as §1
# [22] = biological target: Neu5Ac(a2-6)Gal(b1-4)GlcNAc(b1-3)Gal(b1-4)GlcNAc
# Summary of the method: as §1
# [23] = biological target: Neu5Ac(a2-6)Gal(b1-4)GlcNAc(b1-3)Gal(b1-4)[Fuc(a1-3)]GlcNAc(b1-3)Gal(b1-4)[Fuc(a1-3)]GlcNAc
# Summary of the method: as §1
# [24] = biological target: Neu5Ac(a2-6)Gal(b1-4)GlcNAc6S
# Summary of the method: as §1
# Neu5Ac(a2-6)GalNAc = biological target: Neu5Ac(a2-6)GalNAc
# Summary of the method: as §1
# [25] = biological target: Neu5Ac(a2-6)GalNAc(b1-4)GlcNAc
# Summary of the method: as §1
# Neu5Ac(a2-8)Neu5Ac = biological target: Neu5Ac(a2-8)Neu5Ac
# Summary of the method: as §1
# [26] = biological target: Neu5Ac(a2-8)Neu5Ac(a2-3)Gal(b1-4)Glc
# Summary of the method: as §1
# [27] = biological target: Neu5Ac(a2-8)Neu5Ac(a2-3)[GalNAc(b1-4)]Gal(b1-4)Glc
# Summary of the method: as §1
# [28] = biological target: Neu5Ac(a2-8)Neu5Ac(a2-8)Neu5Ac
# Summary of the method: as §1
# [29] = biological target: Neu5Ac(a2-8)Neu5Ac(a2-8)Neu5Ac(a2-3)Gal(b1-4)Glc
# Summary of the method: as §1
# [30] = biological target: Neu5Ac(a2-8)Neu5Ac(a2-8)Neu5Ac(a2-3)[GalNAc(b1-4)]Gal(b1-4)Glc
# Summary of the method: as §1
# [31] = biological target: Neu5Ac(a2-8)Neu5Ac(a2-8)Neu5Ac(a2-8)Neu5Ac(a2-3)[GalNAc(b1-4)]Gal(b1-4)Glc
# Summary of the method: as §1
# [32] = biological target: Neu5Ac9Ac(a2-6)Gal(b1-4)GlcNAc
# Summary of the method: as §1
# [33] = biological target: Neu5Gc(a2-3)Gal(b1-3)GlcNAc
# Summary of the method: as §1
# [34] = biological target: Neu5Gc(a2-3)Gal(b1-3)[Fuc(a1-4)]GlcNAc
# Summary of the method: as §1
# Neu5Gc(a2-3)Gal(b1-4)Glc = biological target: Neu5Gc(a2-3)Gal(b1-4)Glc
# Summary of the method: as §1
# [35] = biological target: Neu5Gc(a2-3)Gal(b1-4)GlcNAc
# Summary of the method: as §1
# [36] = biological target: Neu5Gc(a2-3)Gal(b1-4)[Fuc(a1-4)]GlcNAc
# Summary of the method: as §1
# [37] = biological target: Neu5Gc(a2-6)Gal(b1-4)GlcNAc
# Summary of the method: as §1
# Neu5Gc(a2-6)GalNAc = biological target: Neu5Gc(a2-6)GalNAc
# Summary of the method: as §1
binder,measurement,setting,value
"PEB3 Cj0289c (Campylobacter jejuni), Q9PIK7 (protein) MDVNLYGPGGPHTALKDIANKYSEKTGVKVNVNFGPQATWFEKAKKDADILFGASDQSALAIASDFGKDFNVSKIKPLYFREAIILTQKGNPLKIKGLKDLANKKVRIVVPEGAGKSNTSGTGVWEDMIGRTQDIKTIQNFRNNIVAFVPNSGSARKLFAQDQADAWITWIDWSKSNPDIGTAVAIEKDLVVYRTFNVIAKEGASKETQDFIAYLSSKEAKEIFKKYGWRE",glycan array binding signal (z-score),[1],-0.436
same,glycan array binding signal (z-score),Neu5Ac(a2-3)Gal(b1-4)Glc,-0.417
same,glycan array binding signal (z-score),[2],-0.45
same,glycan array binding signal (z-score),[3],-0.553
same,glycan array binding signal (z-score),[4],-0.454
same,glycan array binding signal (z-score),[5],-0.516
same,glycan array binding signal (z-score),[6],-0.421
same,glycan array binding signal (z-score),[7],-0.465
same,glycan array binding signal (z-score),[8],-0.217
same,glycan array binding signal (z-score),[9],-0.392
same,glycan array binding signal (z-score),[10],-0.473
same,glycan array binding signal (z-score),[11],-0.012
same,glycan array binding signal (z-score),[12],-0.39
same,glycan array binding signal (z-score),[13],-0.251
same,glycan array binding signal (z-score),[14],-0.159
same,glycan array binding signal (z-score),[15],-0.472
same,glycan array binding signal (z-score),Neu5Ac(a2-3)GalNAc,-0.456
same,glycan array binding signal (z-score),[16],-0.062
same,glycan array binding signal (z-score),[17],-0.413
same,glycan array binding signal (z-score),[18],-0.332
same,glycan array binding signal (z-score),[19],-0.222
same,glycan array binding signal (z-score),[20],-0.267
same,glycan array binding signal (z-score),[21],-0.298
same,glycan array binding signal (z-score),[22],-0.386
same,glycan array binding signal (z-score),[23],-0.373
same,glycan array binding signal (z-score),[24],-0.182
same,glycan array binding signal (z-score),Neu5Ac(a2-6)GalNAc,-0.27
same,glycan array binding signal (z-score),[25],-0.513
same,glycan array binding signal (z-score),Neu5Ac(a2-8)Neu5Ac,-0.303
same,glycan array binding signal (z-score),[26],-0.434
same,glycan array binding signal (z-score),[27],-0.28
same,glycan array binding signal (z-score),[28],-0.49
same,glycan array binding signal (z-score),[29],-0.456
same,glycan array binding signal (z-score),[30],-0.373
same,glycan array binding signal (z-score),[31],-0.443
same,glycan array binding signal (z-score),[32],-0.081
same,glycan array binding signal (z-score),[33],-0.419
same,glycan array binding signal (z-score),[34],-0.34
same,glycan array binding signal (z-score),Neu5Gc(a2-3)Gal(b1-4)Glc,-0.407
same,glycan array binding signal (z-score),[35],-0.272
same,glycan array binding signal (z-score),[36],-0.328
same,glycan array binding signal (z-score),[37],-0.317
same,glycan array binding signal (z-score),Neu5Gc(a2-6)GalNAc,-0.401
